Among the data in the supplement of paper PMC6135742 are total cell number values, retold here.

Where “and” joins values, the source holds several entries; their conditions need not be identical. Equal entries are not always repeated. Structures can show the parent of a compound that is named as a salt. ± gives the standard deviation of the averaged measurements. Whole data set: some 2,600 compounds, median “total cell number (DAPI+ nuclei) relative to DMSO vehicle control” near -1.4, cut for the lowest 2% near -23. The list shows a part of the results.

The assay relates to jimpy (Plp1 jimpy) mouse iPSC-derived oligodendrocyte progenitor cells. Put plainly: total cell number (DAPI+ nuclei) relative to DMSO vehicle control (SDs above negative control mean); higher = more surviving cells. The conditions noted are these: 10 µM; 3 days. As for the experimental part:
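Primary phenotypic screen of >3,000 bioactive compounds (Selleck L1700 and Sigma LO1280 libraries) at a single dose of 10 µM. Compounds were added to jimpy (Plp1 mutant) mouse iPSC-derived OPCs at the start of thyroid hormone-induced oligodendrocyte differentiation, one well per compound in 384-well plates. After 3 days cells were stained for MBP, Sox10 and DAPI and imaged with an Operetta system. MBP+ oligodendrocyte number and total cell number were expressed as the number of SDs above the mean of the DMSO negative control on the same plate (n=16 control wells per plate). Hits were defined as >=4 SD for oligodendrocytes and >=2 SD for total cells.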
On to `CN1CCc2cccc3c2[C@H]1Cc1ccc(O)c(O)c1-3` [Apomorphine hydrochloride hemihydrate], for which the total cell number is -6.53.

In the case of `C[C@H](NC(=O)Cc1cc(F)cc(F)c1)C(=O)N[C@H](C(=O)OC(C)(C)C)c1ccccc1`, the total cell number is -0.28.

For `CCC(NC(C)C)C(O)c1ccc(O)c(O)c1` (stereo not drawn) [Isotharine mesylate], the total cell number was -0.958.

In the case of `Cc1cc(Nc2ccc(NC(=O)c3ccc(Nc4ccnc5ccccc45)cc3)cc2)nc(N)n1`, the total cell number was -15.2.

For the compound `CN1C2=CC(=O)/C(=N\NC(N)=O)C=C2CC1S(=O)(=O)O` (stereo not drawn) [Carbazochrome sodium sulfonate (AC-17)], the total cell number was -0.411.

With `C[C@H](NC(=O)[C@@H](O)c1cc(F)cc(F)c1)C(=O)N[C@@H]1C(=O)N(C)c2ccccc2-c2ccccc21`, the total cell number is -4.6.

Regarding `CC(C)N(CCCNC(=O)Nc1ccc(C(C)(C)C)cc1)C[C@H]1O[C@@H](n2ccc3c(N)ncnc32)[C@H](O)[C@@H]1O`, the total cell number was -2.5 and -4.08.

Consider `C[C@@H]1[C@H](O)[C@@H](C)/C=C/C=C/C=C/C=C/C=C/C=C/C=C/[C@H](O[C@@H]2O[C@H](C)[C@@H](O)[C@H](N)[C@@H]2O)C[C@@H]2O[C@](O)(C[C@@H](O)C[C@@H](O)[C@H](O)CC[C@@H](O)C[C@@H](O)CC(=O)O[C@H]1C)C[C@H](O)[C@H]2C(=O)O` [Amphotericin B], for which the total cell number amounted to 3.03.

In the case of `CO[C@@]1(NC(=O)CSCC#N)C(=O)N2C(C(=O)O)=C(CSc3nnnn3C)CS[C@@H]21` [Cefmetazole sodium], the total cell number is -0.987.

For the compound `CC(C)NC[C@H](O)COc1ccc(CC(N)=O)cc1` [S(-)-Atenolol], the total cell number was -2.26.

As to `c1cnc2c(c1)ccc1cccnc12` [1,10-Phenanthroline monohydrate], the total cell number is -8.94.

In the case of `CCOC(=O)C(C)(C)Oc1ccc(Cl)cc1` [Clofibrate], the total cell number was -0.0722.

Consider `O=c1cc(N2CCOCC2)oc2c1ccc1ccccc12`, for which the total cell number was -3.52.

For the compound `N[C@H](CO)C(=O)O` [D-Serine], the total cell number was -0.752.

The compound `O=C1Cc2cc(CCN3CCN(c4nsc5ccccc45)CC3)c(Cl)cc2N1` [Ziprasidone hydrochloride monohydrate] registered a total cell number of 2.73.

Regarding `O=C1Cc2cc(CCN3CCN(c4nsc5ccccc45)CC3)c(Cl)cc2N1` [Ziprasidone HCl], the total cell number was found to be 9.9.

In the case of `CC(C)/N=c1\cc2n(-c3ccc(Cl)cc3)c3ccccc3nc-2cc1Nc1ccc(Cl)cc1` [Clofazimine], the total cell number is -3.4.

Consider `O=c1cc(-c2ccc(O)c(O)c2)oc2cc(O)cc(O)c12` [Luteolin], for which the total cell number is -10.4.

Regarding `CC(=O)Nc1ccc(NC(=S)NC(=O)c2ccc(C(C)(C)C)cc2)cc1` [Tenovin-1], the total cell number was -3.94.

As for `O=C(Cc1ccc(-c2ccc(OCCN3CCOCC3)cc2)cn1)NCc1ccccc1`, the total cell number is -1.88.

`Nc1ncn([C@H]2C[C@H](O)[C@@H](CO)O2)c(=O)n1` [Decitabine]: the total cell number was -3.74.

On to `NCCCCNCCCN` [Spermidine trihydrochloride], for which the total cell number was found to be 0.483.

In the case of `CC(=O)[C@H]1CC[C@H]2[C@@H]3CC=C4C[C@@H](OS(=O)(=O)O)CC[C@]4(C)[C@H]3CC[C@]12C` [Pregnenolone sulfate sodium], the total cell number amounted to 0.54.

Regarding `Clc1ccc(COC(Cn2ccnc2)c2ccc(Cl)cc2Cl)c(Cl)c1` (stereo not drawn) [Miconazole], the total cell number was -4.21.

With `Clc1ccc(COC(Cn2ccnc2)c2ccc(Cl)cc2Cl)c(Cl)c1` (stereo not drawn) [Miconazole Nitrate], the total cell number is -4.97.

Take `Cc1cc(=O)n(-c2ccccc2)n1C` [Antipyrine]: the total cell number is -1.95.

With `NCC=CC(=O)O` (stereo in doubt) [cis-4-Aminocrotonic acid], the total cell number was -1.37.

For the compound `CO[C@H]1O[C@@H]2O[C@@]3(C)CC[C@H]4[C@H](C)CC[C@@H]([C@H]1C)[C@@]24OO3` [Artemether], the total cell number is -1.54 ± 0.17.

As for `CC1(C2CCCC2)Cc2cc(OCC(=O)O)c(Cl)c(Cl)c2C1=O` (stereo not drawn), the total cell number is -1.28.

For `O=c1c2ccccc2oc2ccccc12` [Xanthone], the total cell number is -0.222.

For the compound `NC12CC3CC(CC(C3)C1)C2` [Amantadine hydrochloride], the total cell number turned out to be 0.385.

As to `NC12CC3CC(CC(C3)C1)C2` [Amantadine HCl], the total cell number turned out to be 0.159.

For `N#C/C(=C\c1ccc(O)c(O)c1)C(=O)c1ccc(O)c(O)c1` [Tyrphostin AG 538], the total cell number is -0.923.

With `CC1CCc2c(N3CCC(O)CC3)c(F)cc3c(=O)c(C(=O)O)cn1c23` (stereo not drawn) [Nadifloxacin], the total cell number is -0.436.

On to `Brc1ccc([C@H]2CN3CCSC3=N2)cc1` [S(-)-p-Bromotetramisole oxalate], for which the total cell number was -0.289.

`C=CC[C@H](N)C(=O)O` [L-allylglycine]: the total cell number was -2.84.

As to `O=C(O)c1ccccc1Nc1ccccc1` [N-Phenylanthranilic acid], the total cell number is -1.13.

Take `Cc1c(Cc2ccc3ccccc3n2)c2cc(F)ccc2n1CC(=O)O`: the total cell number is -0.876.

With `CN1CCN(C2=Nc3cc(Cl)ccc3Nc3ccccc32)CC1` [Clozapine], the total cell number is -4.737 ± 0.044.

On to `CO[C@@H](C(=O)N1Cc2[nH]nc(NC(=O)c3ccc(N4CCN(C)CC4)cc3)c2C1)c1ccccc1`, for which the total cell number is -24.2.

For the compound `O=c1ccc2ccccc2o1` [Coumarin], the total cell number was -1.51.

For `CN(C)CCCN1c2ccccc2Sc2ccc(Cl)cc21` [Chlorpromazine HCl], the total cell number was -10.9.

For `CN(C)CCCN1c2ccccc2Sc2ccc(Cl)cc21` [Chlorpromazine hydrochloride], the total cell number was -9.15.

With `Nc1ccc(C(=O)Nc2cccc(-c3nc(N4CCOCC4)c4oc5ncccc5c4n3)c2)cn1`, the total cell number was -18.4.

Regarding `O=C1NC(=O)/C(=C/c2ccc3c(c2)OC(F)(F)O3)S1`, the total cell number came out at 1.89.

In the case of `CCCCOc1cc(CC2CNC(=O)N2)ccc1OC` (stereo not drawn), the total cell number is -2.87.

`CC(C)Cn1c(=O)n(C)c(=O)c2[nH]cnc21` [3-Isobutyl-1-methylxanthine] had a total cell number of 0.419.

Regarding `O=c1[nH]cnc2c1ncn2[C@@H]1O[C@H](CO)[C@@H](O)[C@H]1O` [Inosine], the total cell number is -1.07.

Take `CCOc1ccccc1OC(c1ccccc1)C1CNCCO1` (stereo not drawn) [Reboxetine mesylate]: the total cell number was -4.13.

Turning to `COc1cc([C@@H]2c3cc4c(cc3[C@@H](O[C@@H]3O[C@@H]5CO[C@@H](c6cccs6)O[C@H]5[C@H](O)[C@H]3O)[C@H]3COC(=O)[C@H]23)OCO4)cc(OC)c1O` [Teniposide], the total cell number was -16.6.

For the compound `COC1CCN(C(=O)c2cc(Cc3n[nH]c(=O)c4ccccc34)ccc2F)CC1`, the total cell number was -5.07.

Regarding `c1cncc(CN2CCC(n3ncc4c(N5CCOCC5)nc(-c5ccc6[nH]ccc6c5)nc43)CC2)c1`, the total cell number was -10.5.

Consider `Nc1ccc(S(=O)(=O)Nc2ccccn2)cc1` [Sulfapyridine], for which the total cell number was -0.402.

For the compound `O=C(O)[C@H]1O[C@@H](Oc2cc3oc(-c4ccccc4)cc(=O)c3c(O)c2O)[C@H](O)[C@@H](O)[C@@H]1O` [Baicalin], the total cell number is -0.866.

Regarding `N[C@@H](Cc1ccc(O)c(I)c1)C(=O)O` [3-Iodo-L-tyrosine], the total cell number was -2.23.

Regarding `Cc1[nH]c2ccccc2c1CCNCc1ccc(/C=C/C(=O)NO)cc1` [Panobinostat (LBH589)], the total cell number was -20.7.

As for `Nc1ncnc2c1ncn2C1CCCO1` (stereo not drawn), the total cell number is -0.79.

Consider `Nc1ccn([C@@H]2O[C@H](CO)[C@@H](O)[C@@H]2O)c(=O)n1` [Cytosine-1-beta-D-arabinofuranoside hydrochloride], for which the total cell number is -5.95.

Consider `Nc1ccn([C@@H]2O[C@H](CO)[C@@H](O)[C@@H]2O)c(=O)n1` [Cytarabine], for which the total cell number was -6.97.

`Cc1ccc2c(=O)c3cccc(CC(=O)O)c3oc2c1C` [DMXAA (Vadimezan)]: the total cell number was -1.58.

As for `C[C@H]1O[C@@H](Oc2c(-c3cc(O)c(O)c(O)c3)oc3cc(O)cc(O)c3c2=O)[C@@H](O)[C@@H](O)[C@@H]1O` [Myricitrin], the total cell number was -0.368.

Consider `N[C@@]1(C(=O)O)CS(=O)(=O)[C@H]2[C@H](C(=O)O)[C@H]21`, for which the total cell number was -0.639.

`C=C1/C(=C\C=C2/CCC[C@]3(C)[C@@H]([C@H](C)/C=C/[C@H](C)C(C)C)CC[C@@H]23)C[C@@H](O)C[C@@H]1O` [Doxercalciferol] gave a total cell number of 4.08.

For the compound `CC(C)(C)c1ccc(C(O)CCCN2CCC(C(O)(c3ccccc3)c3ccccc3)CC2)cc1` (stereo not drawn) [Terfenadine], the total cell number is -10.6.

With `CCCCN1CCCCC1C(=O)Nc1c(C)cccc1C` (stereo not drawn) [Bupivacaine HCl], the total cell number is -1.39.

Regarding `CCOC(=O)c1c(CSc2ccccc2)n(C)c2cc(Br)c(O)c(CN(C)C)c12` [Arbidol HCl], the total cell number was -4.97.

In the case of `CCN1CCN(Cc2ccc(-c3cc4c(N[C@H](C)c5ccccc5)ncnc4[nH]3)cc2)CC1`, the total cell number was -17.3.

On to `Cc1nc(Nc2ncc(C(=O)Nc3c(C)cccc3Cl)s2)cc(N2CCN(CCO)CC2)n1` [Dasatinib], for which the total cell number was -22.6.

On to `Cc1cc(Nc2nc(N[C@@H](C)c3ccc(F)cc3)c(C#N)cc2F)n[nH]1`, for which the total cell number was -12.8.

As for `Cc1nc(-c2ccc(OCC(C)C)c(C#N)c2)sc1C(=O)O` [Febuxostat], the total cell number is 4.88.

With `CC(C(=O)O)c1ccc2c(c1)CC(=O)c1ccccc1S2` (stereo not drawn) [Zaltoprofen], the total cell number is -0.852.

As for `Oc1cc2c(cc1O)[C@@H]1c3ccc(O)c(O)c3OC[C@]1(O)C2` [Hematoxylin], the total cell number was -1.72.

As for `CN(C)c1ccc(C(=C2C=CC(=[N+](C)C)C=C2)c2ccc(N(C)C)cc2)cc1` [Crystal Violet], the total cell number is -17.9.

For `CC(=O)[C@H]1CC[C@H]2[C@@H]3CC=C4C[C@@H](O)CC[C@]4(C)[C@H]3CC[C@]12C` [Pregnenolone], the total cell number was -4.76.

For `COc1ccc(CC2c3cc(OC)c(OC)cc3CC[N+]2(C)CCC(=O)OCCCCCOC(=O)CC[N+]2(C)CCc3cc(OC)c(OC)cc3C2Cc2ccc(OC)c(OC)c2)cc1OC` (stereo not drawn) [Atracurium Besylate], the total cell number was -3.76.

Take `C/C(=C\c1ccc(C(=O)O)cc1)c1ccc2c(c1)C(C)(C)CCC2(C)C` [TTNPB (Arotinoid Acid)]: the total cell number amounted to 0.197.

`Nc1ccc(CCNc2ncnc3c2ncn3C2OC(CO)C(O)C2O)cc1` (stereo not drawn) [N6-2-(4-Aminophenyl)ethyladenosine]: the total cell number is -1.4.

Turning to `COc1ccc(-c2ccc3c(N4CCOCC4)nc(N4C[C@@H](C)O[C@@H](C)C4)nc3n2)cc1CO`, the total cell number is -6.43.
